Laboratory results from the supplement of paper PMC4604168 (melanoma cell lines).
The other results are listed elsewhere or left out. Single values are uncertain, as repeats are few or missing.

test system: WM1716; test: cell count relative to DMSO control; melanoma cells; higher = more viable cells; conditions: library dose: standard library concentration; 72 h
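Also: cells treated in 1,536-well plates, then fixed and DAPI-stained, with nuclei counted from automated high-throughput microscope images.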

| SMILES | cell count |
| --- | --- |
| CC1(C)CCC(c2ccc(Cl)cc2)=C(CN2CCN(c3ccc(C(=O)NS(=O)(=O)c4ccc(N[C@H](CCN5CCOCC5)CSc5ccccc5)c(S(=O)(=O)C(F)(F)F)c4)cc3)CC2)C1 + CCCCCCCCCCCC1=C(O)C(=O)C=C(O)C1=O [Embelin] (first compound 2 µM, partner dose 6 µM) | 60% |
| Cc1ccc(Nc2nccc(N(C)c3ccc4c(C)n(C)nc4c3)n2)cc1S(N)(=O)=O [Pazopanib] + NCC(=O)Nc1ccc(-n2nc(C(F)(F)F)cc2-c2ccc3c(ccc4ccccc43)c2)cc1 [OSU03012] (first compound 2 µM, partner dose 5 µM) | 74.4% |
| O=C(/C=C/c1cccnc1)NCCCCC1CCN(C(=O)c2ccccc2)CC1 + Cn1cc(/C=C2\C(=O)Nc3cccnc32)c2ccccc21 [GW441756] (first compound 0.05 µM, partner dose 2 µM) | 112% |
| O=C(/C=C/c1cccnc1)NCCCCC1CCN(C(=O)c2ccccc2)CC1 + CCCCCCCCCCCC1=C(O)C(=O)C=C(O)C1=O [Embelin] (first compound 0.05 µM, partner dose 6 µM) | 97.8% |
| O=C(/C=C/c1cccnc1)NCCCCC1CCN(C(=O)c2ccccc2)CC1 + Cc1cc(Nc2cc(N3CCN(C)CC3)nc(/C=C/c3ccccc3)n2)n[nH]1 [ENMD2076] (first compound 0.05 µM, partner dose 0.2 µM) | 68.9% |
| O=C(/C=C/c1cccnc1)NCCCCC1CCN(C(=O)c2ccccc2)CC1 + COC(=O)c1sccc1S(=O)(=O)Nc1ccc(Nc2ccccc2)cc1OC [GSK0660] (first compound 0.05 µM, partner dose 5 µM) | 78.1% |

test system: WM1745; test: as above; conditions: library dose: standard library concentration; 72 h

| SMILES | cell count |
| --- | --- |
| CC1(C)CCC(c2ccc(Cl)cc2)=C(CN2CCN(c3ccc(C(=O)NS(=O)(=O)c4ccc(N[C@H](CCN5CCOCC5)CSc5ccccc5)c(S(=O)(=O)C(F)(F)F)c4)cc3)CC2)C1 + NCC(=O)Nc1ccc(-n2nc(C(F)(F)F)cc2-c2ccc3c(ccc4ccccc43)c2)cc1 [OSU03012] (first compound 2 µM, partner dose 5 µM) | 2.43% |
| CC1(C)CCC(c2ccc(Cl)cc2)=C(CN2CCN(c3ccc(C(=O)NS(=O)(=O)c4ccc(N[C@H](CCN5CCOCC5)CSc5ccccc5)c(S(=O)(=O)C(F)(F)F)c4)cc3)CC2)C1 + Cc1cc(Nc2cc(N3CCN(C)CC3)nc(/C=C/c3ccccc3)n2)n[nH]1 [ENMD2076] (first compound 2 µM, partner dose 0.2 µM) | 13.8% |
| Cc1ccc(Nc2nccc(N(C)c3ccc4c(C)n(C)nc4c3)n2)cc1S(N)(=O)=O [Pazopanib] + C#Cc1cccc(Nc2ncnc3cc(OCCOC)c(OCCOC)cc23)c1 [erlotinib] (first compound 2 µM, partner dose 4 µM) | 62.2% |
| O=C(/C=C/c1cccnc1)NCCCCC1CCN(C(=O)c2ccccc2)CC1 + CN(NC(=O)CC(=O)NN(C)C(=S)c1ccccc1)C(=S)c1ccccc1 [STA4783] (first compound 0.05 µM, partner dose 0.03 µM) | 44.9% |
| O=C(/C=C/c1cccnc1)NCCCCC1CCN(C(=O)c2ccccc2)CC1 + O=C(Nc1cccc(Cl)c1)Nc1ncc(CCNc2ncnc3ccsc23)s1 [SNS314] (first compound 0.05 µM, partner dose 0.004 µM) | 92.6% |
| Cc1ccc(Nc2nccc(N(C)c3ccc4c(C)n(C)nc4c3)n2)cc1S(N)(=O)=O [Pazopanib] + OCCn1cc(-c2cnc3nnn(Cc4ccc5ncccc5c4)c3n2)cn1 [PF04217903] (first compound 2 µM, partner dose 5 µM) | 98.5% |
| Cc1ccc(Nc2nccc(N(C)c3ccc4c(C)n(C)nc4c3)n2)cc1S(N)(=O)=O [Pazopanib] + OCc1c[nH]c2ccccc12 [Indole-3-carbinol] (first compound 2 µM, partner dose 4 µM) | 99.5% |
| CC1(C)CCC(c2ccc(Cl)cc2)=C(CN2CCN(c3ccc(C(=O)NS(=O)(=O)c4ccc(N[C@H](CCN5CCOCC5)CSc5ccccc5)c(S(=O)(=O)C(F)(F)F)c4)cc3)CC2)C1 + COc1cc2c(Oc3ccc4[nH]c(C)cc4c3F)ncnc2cc1OCCCN1CCCC1 [cediranib] (first compound 2 µM, partner dose 2 µM) | 0.695% |
